The source gives no read counts; variants with many changes may rest on few reads.
B1: LINE1-mini (parent)
chain: GGCAGAGCUCAACACAGCGUGGCAAAGUGGCUGUGGCUAGACUGCC

Variants of: B1
Experiment: self-cleavage, relative activity (ratio to wild type); higher = more cleavage; in vitro, sequencing; the parent is a self-cleaving ribozyme

Row | Variant | self-cleavage
1 | GGCAGAGCUCAACAUAGCGUGGCCAAGUGGAUGUGGCUAGACUGCC | 0.04
2 | UGCAAAGCUCAACACAGUGUGGAAAAGUGGCUGUGGCUAGACUGCC | 0.06
3 | GGCAGUGCUCAAGAAAGCGUGGCAAAGUGGCUGUGGCUAGUCUGGC | 0.05
4 | GGCAGAGCUCAACACCGCGUGUCAAAGAGGCUGUGGCUAGACUGCC | 0.1
5 | GGCAGACCUCAACACAGCGUGGCAAAGUGGCUGUGCAUAGACUACC | 0.18
6 | GGCACAGCUCAGCACAGCGUGGCAAAGUGGCUGUGGCUUGACUGAC | 0.13
7 | GGCAGAGCUCAACACAGCGUGCCAAAGUGGCUCUCGCUACACUGCC | 0.02
8 | GGAAGAGCUCAACACAGCGUGACGAAGAGCAUGUGGCUAGACUGCC | 0.15
9 | GGCAGAGCUCACAACAGCGUGGCAAAGAGGCUGAGGCUAGACUGCC | 0.01
10 | GGCAGAGCUCAACGCAGCGUGGGAAAGCGGCUGUGGCUAGACUGAC | 0.15
11 | GUCAGAGCUCUAGACAGCGUGGCAAAGUGGCUGUGGCUAGAGUGCC | 0
12 | GACAGAGCUCAACACAGCGUGGGAAAGUGGAUGUGGCUAGACUGCC | 0.12
13 | AUAAGAGCUCAACACAGCGUGGCAAAGUGGCUAUGGCUAGACUGCC | 2.33
14 | GGCAGAGCUCAACACAGCGUGGCAAAGUGGCUGUGGCUCUACUGAC | 0.03
15 | GGCAGAGCUUAACACAGCGUGGCAAAGUUGCCGUGGCUAGAAUGCC | 0.02
16 | GUCAGACCUCUACGCAGCAUGUUAAAGUGGCUGUGGCUAGACUGCC | 0.01
17 | GGCAGAGCUCAAAACAGCGUGGCAAAGGGGCUGUGGCUAUACUGCC | 0.06
18 | GGCCGAGCUCCACACAGCGUGGCAAAGUGGCUGUGGCUAGACUGUC | 0.01
19 | GGCAGAGCCCAACACAUCGUGGCAAAGUGGCUGUGGCUAUACUGCC | 0.04

Row | Variant | self-cleavage
20 | GGCAGAGCUAAUCACAGCGUGGCAAAGUGGUUGUGGCUAGACUUAC | 0.02
21 | GGCAGAGCUCAACACAGCGUGGCUACCUGGCUGUGGCUAGCCUGCC | 0.03
22 | GGCAGAGCUGAACACAGCGUGCCAAAGUGGCUGCGGCUAGACUGCC | 0.03
23 | GGAAGAGCUCAACACAGCAUGGCAAAGUGGCUGUGGCUGGACUGCC | 0.17
24 | GGCAGAGCUCAACACAGCAUGGCAAAGUGGCUAUGGGUAGACUACG | 0.04
25 | GGCAGAGCUCAAAACAGCAAGGCAACGUGGCUGUGGCUAGACUGCA | 0.01
26 | GGCAGAGCUCAACACAGCGUGGUAAAGUUGCUGUGGCUAGACUGCA | 0.24
27 | GGCAGAGCUCAACACAGCGCGGCAGAGUGGCUGUGGCUAGUCUGCA | 0.03
28 | GGCUGAGCUCAACACAGCGUGGCAAAGUGGCUGUGUCUAGACUACC | 0.01
29 | GGCAGAGCUCAACACAGCGUGGCAUGGUGGCUGUCGCUAGACUGCC | 0.06
30 | UGCAGAGCUCAACACAUGGUGGCAAAGAGGCUGUGGCUAGACUGCC | 0.02
31 | GGGAGAGCUCAACACAGAGUAGCAACGUGGCUGUGGCUAGACUGCG | 0.01
32 | GGCAGAGCUCAACACAGCGGGGCAAAGUGGCUGUGGCUGGCGUGCC | 0.02
33 | GGCAGAUCUCAGCACAGCGUCGCAAAGUGGCUGUGGCUAGACUGCC | 0
34 | GACAGAGCUCAACACAGCGUGGCAAAGGGGCUGUGGCUAGACAGCC | 0.22
35 | GGCAGAGCUCAACGCAGCUUGGCAACGUGGCUGUGGCUAGACUGCC | 0.38
36 | GGCAGAGCUCAACAUAGCGUGGCAAAGUAGCUGUGCCUAGAUUGCC | 0.06
37 | GUCAGAGUUCAACUCAGCGUGGCAAGGGCGCUGUGGCUAGACUGCA | 0.02
38 | GGCAGAGCUCAACACAGCGUGGCAAAGCGGCUGUGGCUAGAAUCCC | 0.08

Row | Variant | self-cleavage
39 | GGCAGAGCUCAACAAAGCGUAUCAAAGUGCCUGUGGCUAGACUGCC | 0.04
40 | GGCUGAGCACAACACAGCGUGGCUAAGUGGCUGUGGCUAGACUGCC | 0.14
41 | GGCACAGCUCAACACAGAGUGGCAAAGUGGCCGUGGCUAGAUUGCC | 0.05
42 | GGGAGAGCUAAACACAGCGGGGGAAAGUGGGUGUGGAUAGACUGCC | 0
43 | GGCAGAGCUCAACACCGCGGGGCAAAGUGUCUGUGGCUAGACUGCC | 0.04
44 | GGCAGACCUCGACACAGCGAGGUAAAGUGGCUGUGGCUAGCCUGCC | 0.02
45 | GGCAGAGCUCAACAUAGCGUGGCAAAGAGGCUGUGGCUAGACUCCC | 0.07
46 | GUCAGAGCUCAACACAGGGUGGCAAAGUGGCUGUGGCUAGACCGCC | 0.02
47 | GGCAGAGAUCAACACAGCGCGGCAAAGUGGCCGUAGCUAGACUGCC | 0.09
48 | GCCUGUGCUCGACACAGCGUGGCAAAGUGGCUGUGGCUAGACUGCA | 0.05
49 | GGCAGAGCUCAACACAGCGAGGCAAAGUGGCGGUGGCUCGACUGCC | 0.09
50 | GGCAGAGCGCAACACAGCGUUGCAAAGUGGCUGUGGUUAGACUGCC | 0.24
51 | GACAGAACUUAACACAGCGUGGCAAAGUGGCUGUGGCUAGACUGCC | 0.11
52 | GGCAGAGCUCAACACAGUGUGGGAAUUUGGCUGUGGAUAGACUGCC | 0.02
53 | GGCAGGGCUCAACACAGCGUGGCAAAGUGGCUUUGGCUAGACUCCC | 0.05
54 | AGCAGAGCUCAACACAGCAUGGCAAAGUGGCUGUGGCUAGACUCCU | 0.27
55 | GCCAGAGCUCAACUCAGCGUGGCAAAGUGGCUGGGGCUAUAUUGCC | 0
56 | GGCAGAGCUCAACACCGCGUGGCAAUUGGGCUGAGCCUAGACUGCC | 0.01
